# In PubChem BioAssay AID651820 (National Center for Advancing Translational Sciences (NCATS), 2012):
# Out of some 340,000 compounds screened, about 12,000 (3.5%) were called active. The shares of active, inactive and inconclusive entries below differ from those in the screen. Calls follow the shape of the dose curve; as a rule, active = well fitted inhibition curve with a large enough effect; inconclusive = small, poorly fitted or top-dose-only effect, or another doubt; inactive = no such curve, though single readings can be large or run the other way. No potency is given beside an inconclusive call; the fits are too rough.
# Assay: qHTS Assay for Inhibitors of Hepatitis C Virus (HCV)
# Settings: Huh7.5.1 HCVcc-Cre (HCVcc is cell-culture hepatitis C virus) infection, luciferase reporter, 44 h; activity change, negative = inhibition: at 41.8 µM (top of the series) unless noted
# How it was run: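 Cells (1,000/well) were plated 4 h before compound, then infected with HCVcc-Cre virus (~0.5 moi). After 44 h further culture, infection was read as luciferase luminescence following a 15 min substrate incubation at room temperature.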
# % is scaled to controls: 0 for no effect and ±100 for the full control effect; potency is read from the fitted curve at half-maximal effect; tags tell the direction and shape of the fitted curve.
Compound,Potency,"activity change, negative = inhibition"
Cc1ccc(OCC(=O)NNC(=O)Cn2c(=O)cnc3ccccc32)cc1,inactive,–
Nc1cc(S(=O)(=O)N2CCOCC2)ccc1Oc1cccc(Br)c1,active: 5.01 µM,–
Cc1csc(SCc2nnc(-c3ccc(Cl)cc3)o2)n1,inactive,–
O=C(Nc1cnn(Cc2c(Cl)cccc2Cl)c1)c1ccc([N+](=O)[O-])cc1,"inconclusive [inhibitor, single point]",–
CCNS(=O)(=O)c1ccc(Br)c(C(=O)OC(C)C(=O)NCC2CCCCC2)c1 (stereo unspecified),"inconclusive [inhibitor, single point]",–
Cc1ccc2c(c1)N(C)/C(=C/c1cccc[n+]1CCO)S2,"inconclusive [inhibitor, full curve]",–
Cc1ccc(-n2cc(-c3ccccc3)c3c(NN4CCOCC4)ncnc32)cc1,inactive,–
Cc1ccc(-c2csc3ncnc(NCCN4CCOCC4)c23)cc1,"inconclusive [inhibitor, partial curve]",–
Cc1cccc(C)c1NC(=S)NC(=O)c1ccccc1F,inactive,–
CCN(CC)S(=O)(=O)c1cc(NC(=O)C2CC(=O)N(Cc3ccccc3)C2)ccc1Cl (stereo unspecified),active: 11.2 µM,–
O=C(NCc1ccco1)c1ccccc1NS(=O)(=O)c1ccc2c(c1)OCCO2,"inconclusive [inhibitor, single point]",–
C=CCn1c(O)c(CN2CCN(Cc3ccccc3)CC2)c(C)c(C#N)c1=O,inactive,–
CCNC(=S)NNC(=O)CCc1nc2cc(Cl)ccc2n(Cc2ccccc2)c1=O,"inconclusive [inhibitor, single point]",–
COc1ccc(-c2cc(-c3cccs3)nc(OC)c2C#N)cc1OC,"inconclusive [inhibitor, full curve, poor fit]",–
Oc1ccc2oc3c(c2c1/C=N/n1cnnc1)CCCC3,"inconclusive [inhibitor, single point]",–
OC1CCC(Nc2ncnc3sccc23)CC1 (stereo unspecified),inactive,–
CCCCOc1ccc(Cc2cnc(N)nc2N)cc1,"inconclusive [inhibitor, single point]",–
CN(C)CCCN1c2ccccc2Sc2ccc(C(F)(F)F)cc21,"inconclusive [inhibitor, single point]",inactive: 1.85% [at 8.37 µM]
COc1ccc(Nc2cc(C(=O)N3CCc4ccccc4C3)c3ccccc3n2)c(OC)c1,active: 10 µM,–
Brc1ccc(OCc2ccccc2)c(CNCc2ccncc2)c1,active: 10 µM,–
CCNS(=O)(=O)c1ccc(NC(=O)Nc2cccc(OC)c2)cc1,"inconclusive [inhibitor, single point]",–
COc1ccc(/C=N/NC(=O)CCn2cnc(-c3ccccc3)c2-c2ccccc2)cc1OC,"inconclusive [inhibitor, single point]",–
CCNC(=O)N1c2ccccc2Sc2ccccc21,inactive,–
CCCN(CC(=O)Nc1ccc(F)c(F)c1F)C(=O)CCc1nc2ccccc2c(=O)[nH]1,inactive,–

Compound,Potency,"activity change, negative = inhibition"
O=C(/C=C/c1ccc([N+](=O)[O-])cc1)NCCc1ccccc1,inactive,–
COc1ccc(OC)c(C(C[N+](=O)[O-])c2c(C)cc3ccccn23)c1 (stereo unspecified),"inconclusive [inhibitor, single point]",–
COc1ccc(S(=O)(=O)N2CCOCC2)cc1NC(=O)CSc1ccc(F)cc1,"inconclusive [inhibitor, single point]",–
O=[N+]([O-])c1cccc(N=NN(CCO)c2cccc([N+](=O)[O-])c2)c1,active: 1.12 µM,–
CN1N=C(c2ccc(F)c(F)c2)CSC1=NCc1ccccc1,inactive,–
CCOC(=O)c1ccc(Oc2cn[nH]c2-c2ccc(O)cc2O)cc1,"inconclusive [inhibitor, single point]",–
CCC(=O)c1ccc(OCC(O)Cn2c(C)nc3ccccc32)cc1 (stereo unspecified),"inconclusive [inhibitor, partial curve]",–
COC(=O)c1ccc(C(=O)OC)c(NC(=O)CN(C)Cc2ccccc2)c1,"inconclusive [inhibitor, single point]",–
O=C(O)C1(O)C[C@@H](O)C(O)[C@H](O)C1 (stereo partly specified),"inconclusive [inhibitor, single point]",–
CCOc1ccccc1NC(=O)CN1CCC(C(=O)c2ccc(OC)cc2)CC1,"inconclusive [inhibitor, single point]",–
Brc1ccc(-c2nnc(-c3cccnc3)o2)cc1,inactive,–
COc1cc(/C=C2\SC(=O)N(Cc3ccc(Cl)cc3)C2=O)cc([N+](=O)[O-])c1O,inactive,–
CCOC(=O)c1c(C)[nH]c(C)c1C(=O)COc1ncnc2cc([N+](=O)[O-])ccc12,"inconclusive [inhibitor, single point]",–
CCCCNc1c([N+](=O)[O-])cc(C)cc1[N+](=O)[O-],"inconclusive [inhibitor, single point]",–
O=C(COC(=O)CCC(=O)c1ccc(F)cc1)NCCc1ccccc1,"inconclusive [inhibitor, single point]",–
S=C(Nc1ccc(Cl)cc1Cl)N1CCCCC1,inactive,–
CCN1C(=O)/C(=C2\SC(N3CCOCC3)=NC2=O)c2ccccc21,inactive,–
COc1ccccc1-n1ccnc1SCC(=O)NC1CCCC1,"inconclusive [inhibitor, partial curve]",–
Cc1cc(C(=O)CN2C(=O)NC3(CCCC3)C2=O)c(C)n1-c1ccc2c(c1)OCO2,inactive,–
CCN(CCNC(=O)CS(=O)(=O)Cc1nc(-c2cccc(OC)c2)oc1C)c1ccccc1,active: 22.4 µM,–
COc1ccccc1-c1nc(C#N)c(N2CCC(Cc3ccccc3)CC2)o1,"inconclusive [inhibitor, single point]",–
CCOc1nc(SCCOc2ccc(Cl)cc2Cl)nc(N(C)C)n1,"inconclusive [inhibitor, single point]",–
CCOc1ccc(NCc2cc3cc(OC)ccc3[nH]c2=O)cc1,"inconclusive [inhibitor, single point]",–
Cc1cccc(Nc2nnc(SC/C(O)=C(\C#N)c3nc4ccccc4[nH]3)s2)c1,inactive,–

Compound,Potency,"activity change, negative = inhibition"
COC(=O)c1cc(NC(=O)c2cc(-c3ccccc3Cl)oc2C(F)(F)F)ccc1N1CCOCC1,active: 15.8 µM,–
O=S(=O)(NCc1ccccc1)c1ccc(S(=O)(=O)N(Cc2cccs2)CC2CCCO2)cc1 (stereo unspecified),"inconclusive [inhibitor, single point]",–
Cc1ccc(C)c(Oc2cc(NC(=O)CCCn3nc(C)c([N+](=O)[O-])c3C)cc([N+](=O)[O-])c2)c1,active: 12.6 µM,–
CCN(CC)S(=O)(=O)c1cc(NC(=O)COc2ccc(C#N)cc2OC)ccc1C,"inconclusive [inhibitor, partial curve, poor fit]",–
O=C(NC1CCCCC1)N1CCSC1=Nc1ccccc1,"inconclusive [inhibitor, single point]",–
COc1cccc(C(=O)N/N=C/c2ccc(OC)c(COc3ccccc3C(N)=O)c2)c1,"inconclusive [inhibitor, single point]",–
O=C(CCN1C(=O)/C(=C/c2ccccc2Cl)SC1=S)N1CCOCC1,active: 5.62 µM,–
CCc1ccc(N/C(N)=N/c2nc(CSc3ccccn3)cc(=O)[nH]2)cc1,"inconclusive [inhibitor, single point]",–
COc1ccc(OC)c(S(=O)(=O)N2Cc3ccccc3CC2C(=O)Nc2nccs2)c1 (stereo unspecified),"inconclusive [inhibitor, single point]",–
O=C1C=C(c2ccc3ncccc3c2)C[C@@H](c2ccc(Cl)cc2)C1,"inconclusive [inhibitor, single point]",–
O=C(c1cc(Sc2ccc(Cl)cc2)nc2ccccc12)N1CCN(c2ccccn2)CC1,"inconclusive [inhibitor, single point]",–
OC(COC(c1ccccc1)c1ccccc1)CN1CCN(c2ccccn2)CC1 (stereo unspecified),"inconclusive [inhibitor, partial curve]",–
COc1ccc2c(C(=O)c3ccc(C)cc3)n(Cc3ccc(C(N)=O)cc3)[n+]([O-])c2c1,inactive,–
CCOc1ccccc1N1CCN(C(=O)c2cc(S(=O)(=O)N(C)C)ccc2N2CCCC2)CC1,"inconclusive [inhibitor, single point]",–
O=C(Nc1nc2ccccc2n1CCN1CCOCC1)c1ccc(Cn2cc([N+](=O)[O-])cn2)o1,inactive,–
Cn1ccnc1Sc1cc(NCCCO)c([N+](=O)[O-])c2nonc12,active: 10 µM,–
COc1ccc(/C=N/NC(=O)c2ccc(F)cc2)cc1CN1CCc2cc(OC)c(OC)cc2C1C (stereo unspecified),"inconclusive [inhibitor, partial curve]",–
COc1cc(/C=C/C(=O)NC(C)C)ccc1OCc1ccccc1,"inconclusive [inhibitor, partial curve]",–
CCNc1nc(NCC)nc(SCCOc2ccc(C)cc2)n1,"inconclusive [inhibitor, single point]",–
COc1ccccc1NC(=O)c1ccc(NC(=O)COC(=O)CCC2CCCC2)cc1,inactive,–
O=C(CCC(=O)N1CCN(S(=O)(=O)c2ccccc2)CC1)c1ccc(Br)cc1,"inconclusive [inhibitor, partial curve, poor fit]",–
Cc1cc(C)n(-c2ccc(NC(=O)C3CCCCN3Cc3cccc4c3OCO4)cc2)n1 (stereo unspecified),"inconclusive [inhibitor, single point]",–
